{"source": "the supplement of paper PMC8728848", "experiment_in_all_cases": "glycan array binding signal (z-score within array); higher = stronger binding", "settings_in_all_cases": "glycan notation: IUPAC condensed, linker removed", "key": {"Fuc(a1-2)Gal": {"molecular_target": "Fuc(a1-2)Gal", "outline": "(§1)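 The binding signal is a Z-score computed within each array and averaged over linkers. Arrays of the same protein sequence at different concentrations or buffers were also averaged together. Data originate from 3228 arrays in the Consortium for Functional Glycomics database, kept only where the protein sequence was available.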"}, "Fuc(a1-2)Gal(b1-3)GalNAc": {"molecular_target": "Fuc(a1-2)Gal(b1-3)GalNAc", "outline": "as §1"}, "[1]": {"molecular_target": "Fuc(a1-2)Gal(b1-3)GalNAc(b1-3)Gal", "outline": "as §1"}, "[2]": {"molecular_target": "Fuc(a1-2)Gal(b1-3)GalNAc(b1-3)Gal(a1-4)Gal(b1-4)Glc", "outline": "as §1"}, "[3]": {"molecular_target": "Fuc(a1-2)Gal(b1-3)GalNAc(b1-4)[Neu5Ac(a2-3)]Gal(b1-4)Glc", "outline": "as §1"}, "Fuc(a1-2)Gal(b1-3)GlcNAc": {"molecular_target": "Fuc(a1-2)Gal(b1-3)GlcNAc", "outline": "as §1"}, "[4]": {"molecular_target": "Fuc(a1-2)Gal(b1-3)GlcNAc(b1-3)Gal(b1-4)Glc", "outline": "as §1"}, "[5]": {"molecular_target": "Fuc(a1-2)Gal(b1-3)[Fuc(a1-4)]GlcNAc", "outline": "as §1"}, "Fuc(a1-2)Gal(b1-4)Glc": {"molecular_target": "Fuc(a1-2)Gal(b1-4)Glc", "outline": "as §1"}, "Fuc(a1-2)Gal(b1-4)Glc6S": {"molecular_target": "Fuc(a1-2)Gal(b1-4)Glc6S", "outline": "as §1"}, "Fuc(a1-2)Gal(b1-4)GlcNAc": {"molecular_target": "Fuc(a1-2)Gal(b1-4)GlcNAc", "outline": "as §1"}, "[6]": {"molecular_target": "Fuc(a1-2)Gal(b1-4)GlcNAc(b1-3)Gal(b1-4)GlcNAc", "outline": "as §1"}, "[7]": {"molecular_target": "Fuc(a1-2)Gal(b1-4)GlcNAc(b1-3)Gal(b1-4)GlcNAc(b1-3)Gal(b1-4)GlcNAc", "outline": "as §1"}, "[8]": {"molecular_target": "Fuc(a1-2)Gal(b1-4)GlcNAc6S", "outline": "as §1"}, "[9]": {"molecular_target": "Fuc(a1-2)Gal(b1-4)[Fuc(a1-3)]GlcNAc", "outline": "as §1"}, "[10]": {"molecular_target": "Fuc(a1-2)Gal(b1-4)[Fuc(a1-3)]GlcNAc(b1-3)Gal(b1-4)[Fuc(a1-3)]GlcNAc", "outline": "as §1"}, "[11]": {"molecular_target": "Fuc(a1-2)Gal(b1-4)[Fuc(a1-3)]GlcNAc(b1-3)Gal(b1-4)[Fuc(a1-3)]GlcNAc(b1-3)Gal(b1-4)[Fuc(a1-3)]GlcNAc", "outline": "as §1"}, "Fuc(a1-2)Gal6S(b1-4)Glc": {"molecular_target": "Fuc(a1-2)Gal6S(b1-4)Glc", "outline": "as §1"}, "[12]": {"molecular_target": "Fuc(a1-2)Gal6S(b1-4)Glc6S", "outline": "as §1"}, "[13]": {"molecular_target": "Fuc(a1-2)Gal6S(b1-4)GlcNAc", "outline": "as §1"}, "Fuc(a1-2)[Gal(a1-3)]Gal": {"molecular_target": "Fuc(a1-2)[Gal(a1-3)]Gal", "outline": "as §1"}, "[14]": {"molecular_target": "Fuc(a1-2)[Gal(a1-3)]Gal(b1-3)GlcNAc", "outline": "as §1"}, "[15]": {"molecular_target": "Fuc(a1-2)[Gal(a1-3)]Gal(b1-4)Glc", "outline": "as §1"}, "[16]": {"molecular_target": "Fuc(a1-2)[Gal(a1-3)]Gal(b1-4)GlcNAc", "outline": "as §1"}, "[17]": {"molecular_target": "Fuc(a1-2)[Gal(a1-3)]Gal(b1-4)[Fuc(a1-3)]GlcNAc", "outline": "as §1"}, "[18]": {"molecular_target": "Fuc(a1-2)[Gal(a1-4)]Gal(b1-4)GlcNAc", "outline": "as §1"}, "[19]": {"molecular_target": "Fuc(a1-2)[GalNAc(a1-3)]Gal", "outline": "as §1"}, "[20]": {"molecular_target": "Fuc(a1-2)[GalNAc(a1-3)]Gal(b1-3)GlcNAc", "outline": "as §1"}, "[21]": {"molecular_target": "Fuc(a1-2)[GalNAc(a1-3)]Gal(b1-4)Glc", "outline": "as §1"}, "[22]": {"molecular_target": "Fuc(a1-2)[GalNAc(a1-3)]Gal(b1-4)GlcNAc", "outline": "as §1"}, "[23]": {"molecular_target": "Fuc(a1-2)[GalNAc(a1-3)]Gal(b1-4)[Fuc(a1-3)]GlcNAc", "outline": "as §1"}, "[24]": {"molecular_target": "Fuc(a1-2)[GalNAc(a1-4)]Gal(b1-4)GlcNAc", "outline": "as §1"}, "[25]": {"molecular_target": "Fuc(a1-2)[GalNAc(b1-3)]Gal", "outline": "as §1"}, "Fuc(a1-3)GlcNAc": {"molecular_target": "Fuc(a1-3)GlcNAc", "outline": "as §1"}, "[26]": {"molecular_target": "Fuc(a1-3)[Gal(b1-4)]Glc6S", "outline": "as §1"}, "[27]": {"molecular_target": "Fuc(a1-3)[Gal(b1-4)]GlcNAc", "outline": "as §1"}, "[28]": {"molecular_target": "Fuc(a1-3)[Gal(b1-4)]GlcNAc(b1-2)Man(a1-3)[Fuc(a1-3)[Gal(b1-4)]GlcNAc(b1-2)Man(a1-6)]Man(b1-4)GlcNAc(b1-4)GlcNAc", "outline": "as §1"}, "[29]": {"molecular_target": "Fuc(a1-3)[Gal(b1-4)]GlcNAc(b1-2)Man(a1-6)[Gal(b1-4)GlcNAc(b1-2)Man(a1-3)]Man(b1-4)GlcNAc(b1-4)GlcNAc", "outline": "as §1"}, "[30]": {"molecular_target": "Fuc(a1-3)[Gal(b1-4)]GlcNAc(b1-3)Gal(b1-3)[Fuc(a1-4)]GlcNAc", "outline": "as §1"}, "[31]": {"molecular_target": "Fuc(a1-3)[Gal(b1-4)]GlcNAc(b1-4)Gal(b1-4)[Fuc(a1-3)]GlcNAc", "outline": "as §1"}, "[32]": {"molecular_target": "Fuc(a1-3)[Gal(b1-4)]GlcNAc(b1-4)Gal(b1-4)[Fuc(a1-3)]GlcNAc(b1-4)Gal(b1-4)[Fuc(a1-3)]GlcNAc", "outline": "as §1"}, "[33]": {"molecular_target": "Fuc(a1-3)[Gal(b1-4)]GlcNAc6S", "outline": "as §1"}, "[34]": {"molecular_target": "Fuc(a1-3)[Gal3S(b1-4)]Glc6S", "outline": "as §1"}, "[35]": {"molecular_target": "Fuc(a1-3)[Gal3S(b1-4)]GlcNAc", "outline": "as §1"}, "[36]": {"molecular_target": "Fuc(a1-3)[Gal3S(b1-4)]GlcNAc6S", "outline": "as §1"}}, "note": "The list shows a part of the results.", "data": [{"binder": "CBM32-4 (Clostridium perfringens), P26831 (protein) MGSSHHHHHHSSGLVPRGSHMASVYEPSLVDAYVGDDGAKKAVDGDLKTRVKFLGAPSTGDTIVYDLGQEILVDNLKYVVLDTEVDHVRDGKIQLSLDGETWTDAINIGDGVENGVDDMFSTPLKNGYKHGNQSGGIVPIDSAYVEGDNLNQKARYVRILFTAPYRHRWTVINELMINNGEYIPTVNDPT", "values": [{"measurement": "glycan array binding signal (z-score)", "setting": "Fuc(a1-2)Gal", "value": -0.523}, {"measurement": "glycan array binding signal (z-score)", "setting": "Fuc(a1-2)Gal(b1-3)GalNAc", "value": -0.38}, {"measurement": "glycan array binding signal (z-score)", "setting": "[1]", "value": 1.71}, {"measurement": "glycan array binding signal (z-score)", "setting": "[2]", "value": -0.445}, {"measurement": "glycan array binding signal (z-score)", "setting": "[3]", "value": -0.335}, {"measurement": "glycan array binding signal (z-score)", "setting": "Fuc(a1-2)Gal(b1-3)GlcNAc", "value": -0.394}, {"measurement": "glycan array binding signal (z-score)", "setting": "[4]", "value": -0.488}, {"measurement": "glycan array binding signal (z-score)", "setting": "[5]", "value": -0.475}, {"measurement": "glycan array binding signal (z-score)", "setting": "Fuc(a1-2)Gal(b1-4)Glc", "value": -0.357}, {"measurement": "glycan array binding signal (z-score)", "setting": "Fuc(a1-2)Gal(b1-4)Glc6S", "value": -0.257}, {"measurement": "glycan array binding signal (z-score)", "setting": "Fuc(a1-2)Gal(b1-4)GlcNAc", "value": -0.239}, {"measurement": "glycan array binding signal (z-score)", "setting": "[6]", "value": -0.311}, {"measurement": "glycan array binding signal (z-score)", "setting": "[7]", "value": -0.019}, {"measurement": "glycan array binding signal (z-score)", "setting": "[8]", "value": -0.104}, {"measurement": "glycan array binding signal (z-score)", "setting": "[9]", "value": -0.465}, {"measurement": "glycan array binding signal (z-score)", "setting": "[10]", "value": -0.368}, {"measurement": "glycan array binding signal (z-score)", "setting": "[11]", "value": -0.29}, {"measurement": "glycan array binding signal (z-score)", "setting": "Fuc(a1-2)Gal6S(b1-4)Glc", "value": -0.243}, {"measurement": "glycan array binding signal (z-score)", "setting": "[12]", "value": 4.3}, {"measurement": "glycan array binding signal (z-score)", "setting": "[13]", "value": -0.283}, {"measurement": "glycan array binding signal (z-score)", "setting": "Fuc(a1-2)[Gal(a1-3)]Gal", "value": -0.4}, {"measurement": "glycan array binding signal (z-score)", "setting": "[14]", "value": -0.46}, {"measurement": "glycan array binding signal (z-score)", "setting": "[15]", "value": -0.377}, {"measurement": "glycan array binding signal (z-score)", "setting": "[16]", "value": -0.443}, {"measurement": "glycan array binding signal (z-score)", "setting": "[17]", "value": -0.467}, {"measurement": "glycan array binding signal (z-score)", "setting": "[18]", "value": -0.361}, {"measurement": "glycan array binding signal (z-score)", "setting": "[19]", "value": -0.425}, {"measurement": "glycan array binding signal (z-score)", "setting": "[20]", "value": -0.431}, {"measurement": "glycan array binding signal (z-score)", "setting": "[21]", "value": -0.227}, {"measurement": "glycan array binding signal (z-score)", "setting": "[22]", "value": -0.266}, {"measurement": "glycan array binding signal (z-score)", "setting": "[23]", "value": -0.307}, {"measurement": "glycan array binding signal (z-score)", "setting": "[24]", "value": -0.411}, {"measurement": "glycan array binding signal (z-score)", "setting": "[25]", "value": -0.504}, {"measurement": "glycan array binding signal (z-score)", "setting": "Fuc(a1-3)GlcNAc", "value": -0.292}, {"measurement": "glycan array binding signal (z-score)", "setting": "[26]", "value": 0.044}, {"measurement": "glycan array binding signal (z-score)", "setting": "[27]", "value": -0.408}, {"measurement": "glycan array binding signal (z-score)", "setting": "[28]", "value": 0.148}, {"measurement": "glycan array binding signal (z-score)", "setting": "[29]", "value": -0.493}, {"measurement": "glycan array binding signal (z-score)", "setting": "[30]", "value": -0.438}, {"measurement": "glycan array binding signal (z-score)", "setting": "[31]", "value": -0.313}, {"measurement": "glycan array binding signal (z-score)", "setting": "[32]", "value": -0.324}, {"measurement": "glycan array binding signal (z-score)", "setting": "[33]", "value": -0.103}, {"measurement": "glycan array binding signal (z-score)", "setting": "[34]", "value": 0.526}, {"measurement": "glycan array binding signal (z-score)", "setting": "[35]", "value": -0.338}, {"measurement": "glycan array binding signal (z-score)", "setting": "[36]", "value": 1.3}]}]}
